Reference: the RNAGym collection of RNA variant scans (doi:10.1093/nar/gkz1192)
Read counts are not given, so values of variants with three or more changes are uncertain.

B1: CPEB3 Ribozyme (parent)
chain: UAACAGGGGGCCACAGCAGAAGCGUUCACGUCGCAGCCCCUGUCAGAUUCUGGUGAAUCUGCGAAUUCUGCUGUAUAUCUC

Variants of: B1
Assay: self-cleavage, relative activity (ratio to wild type); higher = more cleavage; in vitro, sequencing
Procedure, shortened: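 Relative activity compares each variant's cleaved/total read fraction with that of the unmutated ribozyme. To get these fractions, barcoded CPEB3 ribozyme libraries from rounds of error-prone PCR were transcribed with T7 RNA polymerase for 5 hours at 37°C and then given 15 min of DNase I treatment before EDTA was added. The RNAs were reverse transcribed with template switching and sequenced on Illumina, and DNA sequencing linked barcodes to variants. A minimum of 5 reads applied, and three batches were averaged.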

Variant	self-cleavage
A15G A64C U80A	0.15
A13U U58A U78G	0.46
C14U U49C U54A U60C U74C	0.2
A13U U48A U54C U76C	0.4
A15G C23U G33A U49C C50G G63A A64C	0.08
A15G A35U U43C	0.32
A15G A35U U43G	0.13
C14A C23U U60C A64U	0.09
A15G A45U A47G U48C U69C	0.06
C14U A18G U41A U48C U60C U78C	0.12
C14U U41G U80C	0.23
A15C U49C A75U	0.13
A15G A20U U49C U51A A75G	0.05
A15G A18U U25C C68G A75U	0.13
A15C A28G U51C	0.48
A13U U67A C68U	0.43
A13U U43C C59U	0.4
A15G C37U C39A A47C U49C U74C U80A	0.03
A13U U41A G52A	0.34
C14G C50A U67A	0.52
A15G A18G U54A	0.42

Variant	self-cleavage
A15G A20U A47U U58A	0.06
C14A U51G U58C U80A	1.21
A15G C68A U78C	0.19
A13U U67C A77G	0.24
A15G A20U U25C C29U A45G	0.11
A13U U41C U51C A57G U72A U76C	0.34
A15G C40A A45C U48A	0.24
A15G A18C G36A U60A U80C	0.04
C14U A45C U58C U78C	0.11
C14U A15C A20G U51A C62A U74C	0.15
A15G C17U U31A A35G U74A	0.73
A15G A45G U72C	0.99
A15C A21G U31C G33A U76C	0.03
A15G G19U A20G U41A	0.08
A15G A21G U43A	0.69
A15G C39A U72C U80C	0.21
C14U A45G U74C	1.06
C14G C44U C50A U54A U69C	0.07
A13U U31A U51G U76A	0.88
A15G A35G A56C	0.28
A15G A20G U31C U41C	0.13

Variant	self-cleavage
A15G A18U A21G U72G	0.34
A15G A20G A21G A57G U60A U72C	0.19
C14U G55A A57U G73A	1.08
A13U U43A U67G U80C C81U	0.7
C14U G55U U78C	1.24
A15G C44A A45G U78C	0.16
A15G A28G U43C A47G U60A	0.43
A13U U60G U72C	0.21
A15G C29U U31C	0.22
A15G G19C U25C U31C G33A U67A	0.04
A15G G16C A77G	0.14
A15G A18G A35U U41C G55A U66C U80C	0.05
A15C A21G U60C U67A U76C	0.18
A15G A20G U26A U41C U43A	0.44
A15G A20U U31C A64G U72C C79A	0.07
A15G A35U A64C U69A	0.11
A13U U51C A64U U66C	0.44
A13U U31C G46C	0.34
C14G U48C A64G A65U	0.29
A15C U26G U41A C62A	0.34
A15G A28U C32A A35U A65G U67C U72C	0.06

Variant	self-cleavage
C14G A21G U60C U66C U76A	0.75
A15G A45G U54A	1.06
A15G A47U U48A A75U	0.24
A15G A20U U72C	0.55
A15G A35G C44U U60A A65U	0.08
C14A C23A U26C U48C	0.07
A13U U43C U60C	0.1
A15C A20U A21G A28G U48A U49C U72C	0.11
C14U C44U C50U	0.23
C14U A20U A56G	0.11
A15C U49A A65G	0.17
A13U U54C G70A	0.26
A15G A20G A28G A75G	0.41
A15G A35U C62U	0.25
C14U A21G C32A A56G U60C U66A	0.02
C14A U60C U67C	0.35
A15G A28G A45U A47G U80A	0.41
C14A A21U U25C U69G	0.14
C14U A28G U78G	1
C14G A15G A18G C39U	0.32
A15G G19U C37A U41C G63A	0.17
